# The whole screen tested about 190,000 compounds, of which about 520 (0.27%) were called active. Inconclusive means that the source gave no clear call. Such entries were picked first, then a sample of the others.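 The calls were made as follows: active = GTP binding activity at least 20 points away from the 100% control level, either lower or higher; inconclusive = compound flagged as likely green fluorescent, judged across all proteins; inactive = the rest.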
# Target: Ras-related C3 botulinum toxin substrate 1 (Homo sapiens) (UniProt P63000)
# Experiment: wildtype Rac1 GTP binding modulators, primary screen, biochemical, GST-Rac1 beads, flow cytometry, multiplex (AID 757)
# Details: fluorescent GTP binding, at 10 µM, actives lie on both sides, 0 = cold GTP competed, 100 = untreated
row,SMILES,GTP binding activity (% of control)
1,CC(C)Cn1cc(C(=O)N2CCN(c3ccccn3)CC2)c2c3ccccc3n(C)c2c1=O,inconclusive: 106%
2,COc1cccc(CN2CCNC(=O)C2CC(=O)N(Cc2cnn(C)c2)C(C)C)c1 (centres undefined),inactive: 100%
3,CC(=O)Nc1ccc(S(=O)(=O)Nc2cccc(NC(=O)c3ccco3)c2)cc1,inactive: 89%
4,NC(N)=NS(=O)(=O)c1ccc(NC(=S)NC(=O)c2ccc3c(c2)OCO3)cc1,active: 123% [activator]
5,CCNC(=O)O/N=C(\C)c1sc(-c2ccccc2)nc1C,inconclusive: 105%
6,Clc1ccc(CN=C2Nc3ccccc3CS2)cc1,inconclusive: 102%
7,O=C(c1cccc(S(=O)(=O)N2CCCC2)c1)c1cccc(S(=O)(=O)N2CCCC2)c1,inconclusive: 90%
8,CC(CN1CCOCC1)OC(=O)Cc1ccc(Cl)cc1 (centres undefined),inactive: 102%
9,COc1ccccc1CCNC(=O)c1cc(-c2ccncc2)nc2ccc(Br)cc12,inactive: 96%
10,CCn1cc(C(=O)OCC(=O)c2cc(C)n(-c3ccccc3)c2C)c(=O)c2ccc(C)nc21,inactive: 90%
11,CSc1ccccc1NC(=O)c1ccc(Br)o1,inactive: 99%
12,CCN(CC)S(=O)(=O)c1ccc2oc(C(=O)NC(C)C)c(C)c2c1,inconclusive: 102%
13,Cc1cc(=O)oc(C)c1C(=O)NC1CCCCCCC1,inactive: 99%
14,COc1ccc(Oc2nnc(C)c3ccccc23)cc1,inconclusive: 110%
15,S=c1[nH]nc(-c2ccc3ccccc3n2)n1-c1cc(Cl)cc(Cl)c1,inconclusive: 95%
16,O=C1/C(=C\c2cccnc2)Sc2ccccc21,inactive: 84%
17,COc1ccc(-c2cc(C(F)(F)F)nc(S(=O)(=O)CCCC(=O)Nc3cc(C)on3)n2)cc1OC,inconclusive: 91%
18,O=c1c2ccc([N+](=O)[O-])cc2ncn1CCOc1ccccc1,active: 76%
19,Cn1c(N2CCOCC2)nc(-c2ccccc2)c1-c1ccccc1,inactive: 100%
20,Cc1ccc(C(=O)NCC(=O)OCC(=O)Nc2ccccc2C#N)s1,inactive: 99%
21,CCOC(=O)CCCCC(=O)c1[nH]c(=O)[nH]c1CN1CCOCC1,inconclusive: 105%
22,CCNC(=O)COC(=O)COc1ccc(Cl)cc1C,inactive: 105%
23,O=C(NCc1ccccc1)c1cc(S(=O)(=O)N2CCOCC2)ccc1F,inconclusive: 119%
24,NC(CC(=O)O)c1ccc(Br)cc1 (centres undefined),inactive: 99%

row,SMILES,GTP binding activity (% of control)
1,O=C(NC1CC1)C1=C[C@@H](c2ccccc2)C[C@@H](OCCCCO)O1,inconclusive: 100%
2,O=C(NCc1ccccc1)c1ccc(S(=O)(=O)N2CCCc3ccccc32)cc1,inconclusive: 106%
3,CCOC(=O)c1sc2nc(C3CC3)cc(-c3ccc(F)cc3)c2c1N,inactive: 97%
4,O=c1c2ccccc2c(-c2n[nH]c(=S)o2)nn1Cc1ccccc1,inconclusive: 92%
5,Cc1ccc(S(=O)(=O)N2CCOCC2)cc1NC(=O)COC(=O)c1ccccc1OCc1c(C)noc1C,inactive: 100%
6,COc1ccc(O)c(-c2c(-c3ccc(Cl)cc3)n[nH]c2C)c1,inconclusive: 104%
7,CCCc1c(O)nc(SCCN(CC)CC)n(C(=O)c2ccccc2)c1=O,inactive: 101%
8,CCOC1=NC(C(=O)O)c2ccccc2/C(=C(/C)Cl)N1 (centres undefined),inconclusive: 103%
9,COc1ccc2[nH]cc(CCNS(=O)(=O)c3ccccc3)c2c1,inactive: 98%
10,CCOC(=O)CSc1nc(C)c(C(C)=O)cc1C#N,inconclusive: 107%
11,COCCNC(=S)N1CCC(NC(=O)C23CC4CC(CC(C4)C2)C3)CC1,inactive: 104%
12,COc1ccc(CC(=O)NNC(=O)Cc2ccc(OC)cc2)cc1,inconclusive: 99%
13,CCOc1nonc1C(=N)/C(C(C)=O)=C(\C)O,inconclusive: 107%
14,O=C(Oc1cccc(-n2cnnn2)c1)c1ccco1,inconclusive: 106%
15,CC(CC(=O)O)Nc1ccccc1O (centres undefined),inactive: 94%
16,CCn1c(SCC(=O)O)nnc1-c1cccnc1,inactive: 101%
17,CC(=O)NC1C(=O)N=C(SCC(=O)NC(C)c2ccccc2)NC1=O (centres undefined),inconclusive: 98%
18,CC(=O)CC(c1ccc([N+](=O)[O-])cc1)c1c(O)c2ccccc2oc1=O (centres undefined),inactive: 103%
19,COC(=O)c1ccc(C2/C(=C(/O)c3ccc(OC(C)C)cc3)C(=O)C(=O)N2c2cc(C)on2)cc1 (centres undefined),inconclusive: 95%
20,Brc1cc2c(cc1/C=N/Nc1nc(N3CCCC3)nc(N3CCOCC3)n1)OCO2,inconclusive: 96%
21,Cc1ccc(Sc2nnc(-c3ccccc3)cc2C#N)cc1,inconclusive: 244%
22,COCCCNS(=O)(=O)c1ccc(SC)cc1,inconclusive: 102%
23,CCOC(=O)c1cnc2c(-c3ccccc3)cnn2c1N,inconclusive: 109%
24,Cn1c(N)c(C(=O)COC(=O)c2cc(-c3ccco3)nc3ccccc23)c(=O)n(C)c1=O,inconclusive: 88%

row,SMILES,GTP binding activity (% of control)
1,Cc1ccc(OCC(=O)N/N=C/C=C/c2ccco2)cc1C,inconclusive: 99%
2,CSc1ccccc1C(=O)C1CCCN(Cc2cnn(-c3ccccc3)c2)C1 (centres undefined),inactive: 94%
3,O=C(Nc1ccccc1-c1nc2ccccc2[nH]1)c1sc2ccccc2c1Cl,inactive: 106%
4,c1ccc(-c2cnn3c(-c4ccccc4)c(-c4ccccc4)nc3n2)cc1,inconclusive: 114%
5,O=c1c2cc(N3CCOCC3)ccc2[nH]c(=S)n1Cc1ccco1,inconclusive: 104%
6,CSc1nc2ccccc2n1Cc1cccc(F)c1,inconclusive: 94%
7,Cc1cc(NN)nc2ccc(Cl)cc12,inactive: 97%
8,O=C(Nc1ccc2c(c1)OCO2)C1CCCCN1S(=O)(=O)c1ccc(F)cc1 (centres undefined),inconclusive: 103%
9,Cc1[nH]c2ccccc2c1CN1CCC(Cc2ccccc2)CC1,inactive: 103%
10,CC(C)N1CCC(N2CCN(C3CCCCCC3)CC2CCO)CC1 (centres undefined),inactive: 100%
11,COc1ccc(N2CCN(C(=O)C3CCN(S(=O)(=O)c4ccc(C)cc4)CC3)CC2)cc1,inactive: 101%
12,O=C(NCc1cccs1)c1cccnc1C(=O)O,inconclusive: 118%
13,C/C(=N/OC(=O)c1ccc(C)cc1)c1ccc(N2C(=O)C3CCCCC3C2=O)cc1 (centres undefined),inconclusive: 102%
14,COc1ccc(-c2cc(C(F)(F)F)nc(-n3ccnc3C)n2)cc1,inconclusive: 95%
15,CCc1cccc2c(/C=N/NC(=O)c3cccc(S(=O)(=O)Nc4ccccc4Cl)c3)c[nH]c12,inconclusive: 93%
16,COc1ccc(C(=O)O/N=C2\CCCc3nonc32)cc1,inconclusive: 111%
17,COc1ccc(C(CC(=O)NCC(OC)OC)NS(=O)(=O)c2ccc(Cl)cc2)cc1 (centres undefined),inconclusive: 92%
18,CC(C(=O)NCCN1CCOCC1)c1ccc([N+](=O)[O-])cc1 (centres undefined),inconclusive: 105%
19,COc1ccc(N2CCC(CNC(=S)Nc3cccc(OC)c3)C2)cc1 (centres undefined),inconclusive: 105%
20,Cn1nccc1C(=O)N1CCc2ccccc21,inconclusive: 105%
21,CCOC(=O)/C(=C\Nc1ccccc1C(F)(F)F)Sc1ncc(C(F)(F)F)cc1Cl,inconclusive: 103%
22,CC(C)CC(=O)Nc1nnn(C)n1,inconclusive: 107%
23,O=C(COC(=O)/C=C/c1cccc([N+](=O)[O-])c1)NCc1ccc2c(c1)OCO2,inactive: 85%
24,CCC(C)(C)NC(=O)c1ccc2c(c1)N(CC(=O)OC)C(=O)C(C)(C)O2,active: 120% [activator]

row,SMILES,GTP binding activity (% of control)
1,C=C(C)Cn1c(C)cc(C)c(S(=O)(=O)c2cccc(C)c2)c1=O,inactive: 98%
2,COc1cccc(CC(NC(C)=O)C(=O)NC2CCN(S(=O)(=O)c3ccc4ccccc4c3)CC2)c1 (centres undefined),inactive: 104%
3,O=C(NN1S(=O)(=O)c2ccccc2S1(=O)=O)c1ccc(Br)cc1,inconclusive: 90%
4,CC1(C)Cc2c(sc3nc(SCC(=O)NCc4ccco4)n(-c4ccccc4)c(=O)c23)CS1,inconclusive: 112%
5,Nc1c(C(=O)C2CC2)sc2nc(-c3cccs3)cc(C(F)(F)F)c12,active: 120% [activator]
6,c1ccc(-c2nc(NCc3cccnc3)c3oc4ccccc4c3n2)cc1,inconclusive: 96%
7,COCCNC(=O)NC(=O)CN1CCCc2ccccc21,inactive: 96%
8,OCCC1CN(Cc2cn[nH]c2C2CCCCC2)CCN1C1CCCCC1 (centres undefined),inactive: 101%
9,COc1ccc2c(c1)c(=O)oc1c(C)c(OCc3cc(C(=O)O)oc3C)ccc12,inconclusive: 86%
10,CCOC(=O)CN1C(=O)CN(c2ccc(C)c(C)c2)C1=O,inconclusive: 103%
11,O=c1[nH]c(N/N=C\c2ccc3c(c2)OCO3)nc2ccccc12,active: 67%
12,CSCC[C@H](NC(=O)OC(C)(C)C)C(=O)N/N=C/c1cc2ccc(C)cc2nc1Cl,inconclusive: 101%
13,Cc1ccc(C)c(S(=O)(=O)NCc2ccc(C(=O)NCc3ccccn3)cc2)c1,inconclusive: 101%
14,Cc1c2cc(O)c(=O)cc-2oc2cc(O)c(O)cc12,inconclusive: 700%
15,CC(Cc1c[nH]c2ccccc12)C(=O)O (centres undefined),inactive: 92%
16,O=C(O)c1ccc2cc[nH]c2c1,inconclusive: 95%
17,CC[n+]1c(C)sc2c3ccsc3ccc21,inconclusive: 92%
18,CC(C)C1N(C(=O)CN2CCCCC2)CCN1S(=O)(=O)c1ccccc1 (centres undefined),inactive: 97%
19,CN(C)S(=O)(=O)c1ccc(Cl)c(NC(=O)c2ccncc2)c1,inactive: 104%
20,CCn1c(CNC(=O)Cc2ccc(OC)cc2)nnc1SCC(=O)Nc1ccc(C(=O)O)cc1,inactive: 97%
21,Cc1nnsc1S(=O)(=O)Cc1ccccc1Cl,inconclusive: 107%
22,OCCNc1ncnc2c1sc1nc(N3CCOCC3)c3c(c12)CCC3,inactive: 94%

# Source: PubChem BioAssay AID757 (NMMLSC, 2007)
